Results taken from PubChem BioAssay AID1745853 (National Center for Advancing Translational Sciences (NCATS), 2022).
The list shows a part of the results. Further columns of the screen follow, without active or inactive calls.

Legend:
Assay in all cases: Primary Screen for Target Class Profiling of Small Molecule Inhibitors of Methyltransferases
[1] = target: Glycine N-methyltransferase (Homo sapiens) (UniProt Q14749); conditions: purified enzyme, MTase-Glo SAH luminescence; measured here: GNMT inhibition; at 40 µM; stronger effect = lower value
In short: (§1)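 Each enzyme was assayed with SAM and its substrate. SAH formation detected by MTase-Glo luminescence; single-point 40 uM screen[…].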

[2] = target: Guanidinoacetate N-methyltransferase (Homo sapiens) (UniProt Q14353); conditions: purified enzyme, MTase-Glo SAH luminescence; measured here: GAMT inhibition; at 40 µM; stronger effect = lower value
In short: as §1

[3] = target: Histamine N-methyltransferase (Homo sapiens) (UniProt P50135); conditions: purified enzyme, MTase-Glo SAH luminescence; measured here: HNMT inhibition; at 40 µM; stronger effect = lower value
In short: as §1

[4] = target: Nicotinamide N-methyltransferase (Homo sapiens) (UniProt P40261); conditions: purified enzyme, MTase-Glo SAH luminescence; measured here: NNMT inhibition; at 40 µM; stronger effect = lower value
In short: as §1

[5] = target: Phenylethanolamine N-methyltransferase (Homo sapiens) (UniProt P11086); conditions: purified enzyme, MTase-Glo SAH luminescence; measured here: PNMT inhibition; at 40 µM; stronger effect = lower value
In short: as §1
On the % scale 0 is the no-effect control and ±100 the full control effect.

Row | Structure (SMILES) | activity change, negative = inhibition [1] [%] | activity change, negative = inhibition [2] [%] | activity change, negative = inhibition [3] [%] | activity change, negative = inhibition [4] [%] | activity change, negative = inhibition [5] [%]
1 | Cn1c(=O)c2ccc(C(=O)NC3CCCC3)cc2n2c(SCC(=O)Nc3ccc(F)cc3)nnc12 | -3.71 | 4.33 | 2.44 | -1.97 | 0.819
2 | CCN(CC)c1cc(CCC(=O)NCCCN2CCOCC2)ccn1 | -2.47 | -3.35 | -19.9 | -8.26 | -2.61
3 | CNC(=O)[C@@H](CC(C)C)N1CCC[C@H]1C(=O)NCCc1ccccn1 | -0.327 | -1.16 | 1.73 | 0.216 | -6.27
4 | O=C(N1CCC2(CCNCC2)CC1)C1(S(=O)(=O)c2ccccc2)CC1 | -1.54 | 2.87 | -14.2 | -0.015 | 1.92
5 | CCN(CC)CCOC(=O)c1cc(Cl)c(N)cc1OC | -0.629 | 8.45 | -6.38 | -6.28 | 2.38
6 | CC(C)Cn1c(=O)c2ccccc2n2c(=O)n(CC(=O)N3CCN(c4ccccc4F)CC3)nc12 | 3.43 | 0 | 9.4 | 5.55 | 3.37
7 | COc1ccccc1CNC(=O)C1(C)Cn2c(cc3ccccc32)C(=O)N1Cc1cccs1 (stereo not given) | 0.19 | 0.655 | 3.47 | -2.8 | 0.012
8 | CC(=O)N1CCN(CC[C@H]2CN(C(=O)c3ccnc(Cl)c3)CC[C@H]2CC(=O)O)CC1 | -2.17 | -1.97 | 1.42 | -6.22 | -2.52
9 | CN(C)Cc1cc(C[C@@H]2C[C@H](NCc3ccc(F)cc3)C2(C)C)no1 | -4.7 | -2.98 | -14.1 | -8.51 | -4.6
10 | CCOC(=O)c1cc2n(n1)CC(C)(C(=O)NC1CCCC1)N(c1ccc(Cl)cc1C)C2=O (stereo not given) | 7.47 | 1.17 | 6.83 | 9.43 | 6.61
11 | Cc1cccc(-c2n[nH]n3c2nc(=O)c2ccc(C(=O)NCc4ccccc4Cl)cc23)c1 | -7.5 | 0.687 | -2.83 | -13 | -9.27
12 | C=C[C@@]12COC(=O)C(=C)C1[C@@H](O)[C@H](C(=C)C(=O)OC)[C@@H](OC(=O)C(=C)CO)C2 (stereo not given in full) | -7.32 | -5.32 | -26.7 | -15.3 | 0.258
13 | CCCn1c(=O)c2ccc(C(=O)NC3CCCC3)cc2n2c(=O)n(CC(=O)NC(C)C)nc12 | 5.63 | 0 | 8.26 | 7 | 4.18
14 | C/C=C(/C)C(=O)O[C@H]1[C@H](OC(=O)/C(C)=C\C)[C@@]23C(CC1(C)C)[C@]1(CCC4[C@@]5(C)CC[C@H](O[C@@H]6O[C@H](C(=O)O)[C@@H](O)[C@H](O[C@@H]7O[C@H](CO)[C@H](O)[C@H](O)[C@H]7O[C@@H]7O[C@@H](C)[C@H](O)[C@@H](O)[C@H]7O[C@@H]7OC[C@@H](O)[C@H](O)[C@H]7O)[C@H]6O[C@@H]6O[C@H](CO)[C@H](O)[C@H](O)[C@H]6O)C(C)(C)C5CC[C@@]4(C)[C@]1(C)C[C@H]2O)O[C@H]3O (stereo not given in full) | 1.62 | 7.61 | 5.81 | 2.69 | 4.99
15 | CC(=O)N[C@@H](Cc1c[nH]c2ccccc12)C(=O)OCc1cc(C(F)(F)F)cc(C(F)(F)F)c1 | -11.1 | 15.5 | 11.3 | -8.18 | 6.24
16 | CS(=O)(=O)N1CC2(CCCN(Cc3cccnc3)C2)Cc2ccccc21 (stereo not given) | -8.6 | -9.46 | -7.73 | -13 | -6.93
17 | CC(C)NC(=O)C[C@@H]1C[C@H]2O[C@H](CNC(=O)NCc3ccccc3)[C@@H](O)[C@H]2O1 | 1.18 | 0.955 | 2.29 | -2.51 | 3.27
18 | CCc1cccc(NC(=O)N2CC(c3nnc(C(C)C)o3)C3(CCOCC3)C2)c1 (stereo not given) | -5.32 | -2.54 | -1.47 | -5.17 | -5.27
